Out of some 360,000 compounds screened, about 11,000 (3.1%) were called active. Inconclusive means that the source gave no clear call. Such entries were picked first, then a sample of the others. Calls follow the shape of the dose curve; as a rule, active = well fitted inhibition curve with a large enough effect; inconclusive = small, poorly fitted or top-dose-only effect; inactive = no such curve, though single readings can be large or run the other way. Potencies of inconclusive entries are left out as doubtful fits.
Target: Schistosoma mansoni thioredoxin glutathione reductase (TGR) (UniProt Q962Y6)
Experiment: qHTS Assay for the Inhibitors of Schistosoma Mansoni Peroxiredoxins; also: nearly all actives have a fitted effect of over 60% in size
Conditions: purified TGR, DTNB reduction, TNB absorbance 405 nm; activity change, negative = inhibition: at 114 µM (top of the series) unless noted
Outline: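 Kinetic colorimetric format: TGR-catalysed, NADPH-driven DTNB reduction monitored via TNB absorbance. Enzyme dispensed at 20 nM; compound exposure 15 min at room temperature before reaction start.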
% is scaled to controls: 0 for no effect and ±100 for the full control effect; potency is read from the fitted curve at half-maximal effect; tags tell the direction and shape of the fitted curve.

| SMILES | Potency | activity change, negative = inhibition |
| --- | --- | --- |
| CC1CCN(C(=O)COC(=O)c2n[nH]c3ccccc23)CC1 | inconclusive [inhibitor, full curve, poor fit] |  |
| CCOC(=O)C1CN(S(=O)(=O)c2ccc(C)cc2)c2ccccc2O1 (stereo unspecified) | inconclusive [inhibitor, full curve] |  |
| C#CCOCCOCCOCCNc1nc(N2CCN(C(=O)[C@H](CCC(=O)O)n3cc(C(N)CO)nn3)CC2)nc(N2CCN(C(=O)[C@H](Cc3ccc(O)cc3)n3cc(C(N)CC(C)C)nn3)CC2)n1 (stereo partly specified) | active: 10 µM |  |
| C/C(=N\NC(=O)c1ccccc1O)c1c(O)n(Cc2ccccc2)c(=O)[nH]c1=O | inconclusive [inhibitor, full curve] |  |
| CCOC(=O)N/N=C/c1c[nH]c2ccccc12 | inconclusive [inhibitor, single point] |  |
| CCN(CC)c1ccc(N=C2C(=O)Nc3ccccc32)cc1 | inconclusive [inhibitor, partial curve] |  |
| O=c1[nH]c2ccccc2cc1-c1noc(-c2cccnc2)n1 |  | inactive: 2.19% |
| COc1ccc(C(C)(C)C)cc1NC(=O)CCCN1C(=O)NC(C)(C)C1=O |  | inactive: -4.65% |
| CC(C)Cc1nnc(NS(=O)(=O)c2ccc([N+](=O)[O-])cc2)s1 | inconclusive [inhibitor, partial curve, poor fit] |  |
| CC(C)CCNC(=O)c1ccc(CS(=O)(=O)Cc2ccccc2F)o1 | inconclusive [inhibitor, partial curve] |  |
| CC1CC(=O)Nc2ccccc2N1S(=O)(=O)c1ccc(C(F)(F)F)cc1 (stereo unspecified) | inconclusive [inhibitor, partial curve] |  |
| Cc1ccc(C)c(/C(O)=C2\C(=O)C(=O)N(Cc3cccnc3)C2c2cccnc2)c1 (stereo unspecified) | inconclusive [inhibitor, partial curve] |  |
| Nc1c(C(=O)NCc2ccco2)c2nc3ccccc3nc2n1CCc1ccccc1F | active: 25.1 µM |  |
| N/C(=C\C(=O)c1cc(Cl)ccc1O)C(Cl)(Cl)Cl | inconclusive [inhibitor, partial curve] |  |
| CCCCOc1ccc(C(=O)NCC(=O)OC2CCOC2=O)cc1 (stereo unspecified) | inconclusive [inhibitor, single point] |  |
| COc1ccc(CNCCC(c2ccccc2)C2CCOC(C)(C)C2)cc1 (stereo unspecified) |  | inactive: 12.3% |
| O=C1NN(c2ccc(F)cc2)C(=O)/C1=C/c1cccs1 | inconclusive [inhibitor, full curve, poor fit] |  |
| COc1ccc(C(=O)NC(=S)Nc2ccc(Cc3ccncc3)cc2)cc1 | inconclusive [inhibitor, full curve] |  |
| CC(C)CNC(=S)NC(=O)c1ccc([N+](=O)[O-])cc1 | inconclusive [inhibitor, partial curve] |  |
| COC(=O)n1c(=S)oc2cc(Cl)ccc21 | inconclusive [inhibitor, partial curve] |  |
| Cc1cccc(-c2nc3cc([N+](=O)[O-])ccc3o2)c1 |  | inactive: 4.29% [at 57.1 µM] |
| CC1(C)CC(=O)C=C(NC2=CC3OC(c4ccccc4)OCC3OC2=O)C1 (stereo unspecified) | active: 20 µM |  |
| COCCN(C(=O)CC1C(=O)NCCN1CC(c1ccccc1)c1ccccc1)C(C)C (stereo unspecified) | inconclusive [inhibitor, partial curve] |  |
| Cc1ccc(N2CCN(Cc3nnc(-c4ccccc4F)o3)CC2)c(C)c1 | inconclusive [inhibitor, single point] |  |

| SMILES | Potency | activity change, negative = inhibition |
| --- | --- | --- |
| O=C(Nc1ccc(-c2nc3cccnc3s2)cc1)C1CCCO1 (stereo unspecified) |  | inactive: -4.43% |
| Cc1csc(CN(C)C(=O)C2CCC(=O)N(CCN(C)C)C2)n1 (stereo unspecified) | inconclusive [inhibitor, partial curve] |  |
| Cc1ccc(NC(=O)c2ncn(-c3ccccc3)n2)cc1Cl |  | inactive: -0.53% |
| CCC(=O)Nc1cc(NC(=O)CSc2ncc(-c3ccc(F)cc3)n2Cc2ccco2)ccc1C | active: 44.7 µM |  |
| COc1ccccc1C(=O)NCc1ccc(-c2nc3ccccc3s2)cc1 | inconclusive [inhibitor, single point] |  |
| CC(C)(C)N(C=C(Cl)Cl)C(=O)NC1CCCCC1 | inconclusive [inhibitor, full curve, poor fit] |  |
| Cc1ccc2[nH]c(=O)c(CN(CCCO)S(=O)(=O)c3c(C)ccc4nsnc34)cc2c1 |  | inactive: 8.13% |
| CC1CCC/C(=C(\C#N)c2nc(-c3cc4ccccc4oc3=O)cs2)C1 (stereo unspecified) |  | inactive: -7.85% |
| O=C(O)c1ccc(-n2c(O)c(/C=C3\C=Nc4ccccc43)c(=O)[nH]c2=O)cc1 | inconclusive [inhibitor, partial curve] |  |
| COCCCNC(=O)c1c(NC(=O)c2nc(S(C)(=O)=O)ncc2Cl)sc2c1CCCC2 | active: 5.62 µM |  |
| CCOc1ccccc1NC(=S)NC(=O)C1CC1 | inconclusive [inhibitor, full curve] |  |
| O=C(/C=C/c1ccco1)Nc1ccccc1N1CCCC1 | active: 39.8 µM |  |
| Cn1c(SCC(=O)c2cc3ccccc3o2)nnc1-c1ccccc1 | inconclusive [inhibitor, partial curve] |  |
| Fc1ccc(-n2c(CN3CCCCC3)n[nH]c2=S)cc1 | inconclusive [inhibitor, single point] |  |
| O=S(=O)(c1ccc2ccccc2c1)n1nc(-c2ccco2)nc1NCc1ccc(F)cc1 | inconclusive [inhibitor, partial curve] |  |
| O=c1ccc(-c2ccc(S(=O)(=O)Nc3ccc(F)cc3)o2)n[nH]1 | inconclusive [inhibitor, partial curve] |  |
| O=C(N/N=C/c1ccc([N+](=O)[O-])o1)c1ccc(NS(=O)(=O)c2cccs2)cc1 | active: 35.5 µM |  |
| CC(Sc1nnc(-c2ccc(Cl)cc2Cl)n1Cc1ccccc1)C(=O)Nc1nccs1 (stereo unspecified) |  | inactive: 11.7% |
| CC(CC(=O)Nc1ccc2c(c1)OCO2)c1ccccc1 (stereo unspecified) |  | inactive: -6.66% |
| COc1cc(C(O)CO)ccc1O (stereo unspecified) | inconclusive [inhibitor, partial curve] |  |
| CCOc1cc(/C=C2/C(=O)ON=C2C)ccc1OCc1ccccc1F |  | inactive: -9.43% |
| NC[C@@H]1O[C@H](C23CC4CC(CC(C4)C2)C3)Cc2c1ccc(O)c2O | active: 7.94 µM |  |
| S=C(Nc1ccc(CN2CCCCC2)cc1)Nc1cccc(Cl)c1Cl | active: 25.1 µM |  |
| Cc1nn(C)c(Cl)c1S(=O)(=O)N[C@@H](c1ccccc1)[C@]1(C)C[C@H]1[C@@H](C)C(=O)Nc1ccc2ccccc2c1 |  | inactive: -4.16% |

| SMILES | Potency | activity change, negative = inhibition |
| --- | --- | --- |
| CCN(CC)c1ccc(NC(=O)COc2ccccc2C#N)cc1S(=O)(=O)Nc1ccccc1OC |  | inactive: 4.17% |
| Cc1oc(-c2ccccc2F)nc1CS(=O)(=O)CC(=O)NC1CCCC1 | active: 39.8 µM |  |
| COC(=O)c1sccc1NC(=O)c1ccc(C#N)cc1 | inconclusive [inhibitor, full curve, poor fit] |  |
| CCOc1ccc(N2C(=O)S/C(=C\c3cccn3C)C2=O)cc1 |  | inactive: -0.275% |
| COc1ccc(C)cc1S(=O)(=O)NC1CCCCC1 | inconclusive [inhibitor, single point] |  |
| CCCc1ccc(Oc2cc(C)nc(N3CCOCC3)n2)cc1 |  | inactive: 9.2% |
| CCN1C(=O)[C@@H]2[C@@H](c3ccc(-c4ccc(OC)cc4)cc3)N3CCCC[C@@]3(C(=O)OC)[C@@H]2C1=O | inconclusive [inhibitor, partial curve] |  |
| CSc1cccc(-n2cc(-c3ccc4c(c3)OCO4)[nH]c2=O)c1 | inconclusive [inhibitor, partial curve] |  |
| CCc1ccc(CCC(=O)Nc2nnc(C)s2)o1 | inconclusive [inhibitor, single point] |  |
| COC(=O)c1ccccc1S(=O)(=O)N1CCC(C(=O)N2CCC2)CC1 | inconclusive [inhibitor, partial curve, poor fit] |  |
| CC1=CC(C)(C)Nc2ccc(OC(=O)CN3C(=O)c4cccc5cccc(c45)C3=O)cc21 | inconclusive [inhibitor, full curve, poor fit] |  |
| O=C(NCc1ccncc1)C(=O)Nc1nc2ccccc2s1 |  | inactive: 7.89% |
| CCOC(=O)c1cnc(SCC(=O)NCc2ccco2)nc1N | inconclusive [inhibitor, single point] |  |
| O=C(NC1CCCCC1)C(c1cccnc1)N(C(=O)CCl)c1cccc(Cl)c1 (stereo unspecified) | active: 3.98 µM |  |
| COc1ccc(NCC(=O)Nc2ccc(Br)cc2F)c(OC)c1 | inconclusive [inhibitor, partial curve] |  |
| CCOc1ccc(NC(=O)CN(C)C(=O)CC2CC3CCC2C3)cc1OCC (stereo unspecified) | inconclusive [inhibitor, full curve, poor fit] |  |
| Cc1ccc([N+](=O)[O-])cc1NC(=S)NC(=O)C(C)(C)C | active: 44.7 µM |  |
| CCN1CCN(Cc2c(O)ccc3c(=O)c(-c4ccc(OC)c(OC)c4)c(C(F)(F)F)oc23)CC1 | inconclusive [inhibitor, single point] |  |
| Cc1cccc(/N=C2/NC(=O)C(Cc3ccccc3)S2)n1 (stereo unspecified) |  | inactive: 3.33% [at 57.1 µM] |
| CC(C)c1nc2sc3c(NCc4ccco4)ncnc3c2c2c1COC(C)(C)C2 | inconclusive [inhibitor, partial curve] |  |
| CC(C)(C)c1ccc(O)c(O)c1 | inconclusive [inhibitor, full curve, poor fit] |  |
| CC(C)(C)/C(O)=C/c1nc2cc(Cl)ccc2oc1=O | inconclusive [inhibitor, partial curve] |  |
| CC1CC(C)(C)CC2(C1)NC(=O)N(CC(=O)NCC(c1ccco1)N1CCCCC1)C2=O (stereo unspecified) | inconclusive [inhibitor, partial curve] |  |

Reference: PubChem BioAssay AID485364 (National Center for Advancing Translational Sciences (NCATS), 2010)
